Screen size: about 310,000 compounds; about 14,000 (4.5%) showed an effect of 50% or more. The effect is printed as a negative number. Some of the results follow.
target: human ether-à-go-go-related gene (hERG) potassium channel (human, UniProt Q12809); assay: primary screen, population patch clamp on CHO cells stably expressing hERG
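Further: peak tail current of the secondary pulse compared with the same well before compound.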

human ether-à-go-go-related gene (hERG) potassium channel, sequence (Q12809 whole entry, looked up): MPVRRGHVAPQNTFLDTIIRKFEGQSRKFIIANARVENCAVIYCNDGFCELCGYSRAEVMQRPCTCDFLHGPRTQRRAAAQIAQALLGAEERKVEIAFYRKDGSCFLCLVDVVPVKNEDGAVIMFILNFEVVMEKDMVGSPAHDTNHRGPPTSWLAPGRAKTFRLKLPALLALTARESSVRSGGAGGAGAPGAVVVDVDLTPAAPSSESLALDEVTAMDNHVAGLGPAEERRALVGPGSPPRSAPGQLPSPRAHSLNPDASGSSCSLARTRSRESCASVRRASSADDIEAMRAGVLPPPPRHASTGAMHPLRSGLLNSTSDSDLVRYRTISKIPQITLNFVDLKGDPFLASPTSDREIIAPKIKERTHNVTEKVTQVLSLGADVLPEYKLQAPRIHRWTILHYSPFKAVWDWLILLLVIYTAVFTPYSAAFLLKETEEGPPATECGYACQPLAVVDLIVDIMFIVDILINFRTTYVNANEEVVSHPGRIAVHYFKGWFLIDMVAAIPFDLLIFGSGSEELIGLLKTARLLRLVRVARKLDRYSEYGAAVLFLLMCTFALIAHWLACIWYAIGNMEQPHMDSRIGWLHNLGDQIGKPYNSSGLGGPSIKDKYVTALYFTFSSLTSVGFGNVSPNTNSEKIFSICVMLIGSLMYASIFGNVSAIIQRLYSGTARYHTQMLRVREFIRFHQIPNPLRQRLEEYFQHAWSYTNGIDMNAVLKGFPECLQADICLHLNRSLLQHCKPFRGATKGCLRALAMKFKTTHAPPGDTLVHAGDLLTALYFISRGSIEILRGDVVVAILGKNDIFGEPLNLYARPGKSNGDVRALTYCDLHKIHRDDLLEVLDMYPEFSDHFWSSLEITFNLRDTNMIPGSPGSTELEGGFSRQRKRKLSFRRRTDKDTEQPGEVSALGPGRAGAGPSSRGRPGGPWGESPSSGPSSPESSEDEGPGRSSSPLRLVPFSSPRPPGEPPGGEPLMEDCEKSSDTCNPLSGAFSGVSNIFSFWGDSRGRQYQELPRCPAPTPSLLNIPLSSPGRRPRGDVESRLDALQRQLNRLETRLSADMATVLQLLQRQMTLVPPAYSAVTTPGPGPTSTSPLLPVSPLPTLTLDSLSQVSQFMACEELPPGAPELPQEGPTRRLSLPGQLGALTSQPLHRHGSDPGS

Row | SMILES | hERG current change (%, negative = inhibition) at 10uM [%]
1 | O=c1[nH]c(CN2CCN(S(=O)(=O)/C=C/c3ccccc3)CC2)nc2cc(Cl)ccc12 | -65.8
2 | O=[N+]([O-])c1ccc(Cc2nnc(-c3ccc(F)cc3)o2)cc1 | -57.2
3 | CCCCNc1ncnc2c1cnn2-c1ccc(Cl)cc1 | 14.6
4 | C=CCNc1ncnc2c1cnn2-c1ccc(C)cc1C | 3.76
5 | CCOc1ncccc1C(=O)OCC(=O)c1cc(C)n(Cc2ccco2)c1C | -7.34
6 | CCOc1ccc(-n2c(=O)c3ccccc3c3ccccc3c2=O)cc1 | 17.8
7 | CCCc1cc(=O)oc2cc(OC(C)C(=O)NCC3CCC(C(=O)O)CC3)c(Cl)cc12 (centres unmarked) | 10.1
8 | Cc1ccnc(NC(=O)CCNC(=O)c2ccccc2Cl)c1 | 5.8
9 | CCCCN(C(=O)c1cc2ccccc2o1)c1c(N)n(CCCC)c(=O)[nH]c1=O | -10.2
10 | COC(=O)C(NS(=O)(=O)c1ccccc1Br)C(C)C (centres unmarked) | 5.6
11 | C[C@@H]1C=C(C(=O)N2CCN(Cc3ccc4c(c3)OCO4)CC2)O[C@H](OCCCCO)C1 | 4.01
12 | CC1CCN(C(=O)C2CCN(c3ncnc4c3nc3n4CCCCC3)CC2)CC1 | -20.6
13 | CC(C)c1nc(C(=O)N2CCCC(N3CCN(c4cccc(Cl)c4)CC3)C2)cs1 (centres unmarked) | -36.4
14 | O=C(CBr)N1CCc2ccccc2C(c2ccccc2)C1 (centres unmarked) | 3.93
15 | O=C(NCc1n[nH]c(=S)n1-c1ccccc1Cl)c1ccc(S(=O)(=O)N2CCCCC2)cc1 | 13.5
16 | CC(=O)NC1=NN(C(C)=O)C(c2cccs2)S1 (centres unmarked) | 20
17 | Cc1ccc(CNC(=O)C(=O)NCC2CCCO2)cc1 (centres unmarked) | 7.89
18 | CCN(CC)C(=O)c1ccc(-c2cccs2)s1 | 14.2
19 | O=CC(Cl)P(=O)(N1CCOCC1)N1CCOCC1 (centres unmarked) | 5.11
20 | COc1ccc(C2/C(=C(/O)c3ccc4c(c3)CC(C)O4)C(=O)C(=O)N2Cc2ccncc2)cc1 (centres unmarked) | 5.97
21 | O=c1c2nccnc2[nH]c(=S)n1Cc1ccccc1 | 6.76
22 | Cc1ccccc1C(=O)N(Cc1cccs1)C1CCS(=O)(=O)C1 (centres unmarked) | 31
23 | COc1ccc(/C=C(\NC(=O)c2ccccc2)C(=O)NCc2ccco2)cc1 | 11.9

Row | SMILES | hERG current change (%, negative = inhibition) at 10uM [%]
24 | Clc1cc(-c2ccccc2)nc(-c2ccccc2)n1 | -5.9
25 | COc1ccc(S(=O)(=O)N2CCN(Cc3ccc4c(c3)OCO4)CC2)cc1 | -42.6
26 | CCN(CC(=O)Nc1c(F)cccc1F)C(=O)C1CC(=O)N(CCc2ccc(OC)c(OC)c2)C1 (centres unmarked) | 8.38
27 | CC(C)(C)c1ccc(S(=O)(=O)n2c(CN3CCOCC3)nc3ccccc32)cc1 | 3.73
28 | CC(C)[C@H](NC(=O)c1ccccc1)C(=O)OCC(=O)c1ccccc1F | -3.46
29 | Cc1ccc(C)c(OCc2cc(C(=O)N3CCc4sccc4C3)no2)c1 | 11.7
30 | CCOC(=O)C1CCN(C(c2cc(OC)c(OC)c(OC)c2)c2sc3nc(C)nn3c2O)CC1 (centres unmarked) | -4.32
31 | Cc1onc(-c2ccccc2)c1C(=O)NCc1ccc2c(c1)OCO2 | 6.69
32 | OCCC#Cc1ccc(CN2CCN(CCc3ccccc3)C(CCO)C2)cc1 (centres unmarked) | -20.7
33 | COCCCN1C(=O)c2ccc(C(=O)Nc3cccc(OC)c3)cc2C1=O | -21.4
34 | Nc1nc(NCC(=O)O)nc(NC2CCCCC2)c1[N+](=O)[O-] | 19.2
35 | O=C(c1ccc2nc(N3CCOCC3)sc2c1)N1CCN(c2ccc(Cl)cc2)CC1 | -15.1
36 | Cc1cccc(NC(=O)c2cccc(C(=O)Nc3cccc(C)c3)n2)c1 | 5.3
37 | CC(C)Cn1c(N)c(C(=O)COC(=O)c2cc(F)cc(F)c2)c(=O)n(C)c1=O | -42.1
38 | COCCn1c(SCC(=O)N2CC(=O)Nc3ccccc32)nc2ccccc21 | -2.29
39 | Cc1[nH]c2ccccc2c1/C=N/Nc1ccccc1[N+](=O)[O-] | 12.1
40 | CC#CP(=O)(OCC)C(O)(c1ccccc1)C(F)(F)F (centres unmarked) | -3.29
41 | CCN(CC)C(=O)C1CCCN(Cc2sccc2C)C1 (centres unmarked) | 11.6
42 | CSc1nsc(SC)c1NC(=O)N1CCCC1 | -13.1
43 | CCCS(=O)(=O)c1c(S(=O)(=O)CCC)c2c(C)cccn2c1C(=O)OC | 9.4
44 | CN(Cc1ccccc1NS(=O)(=O)c1ccc(Cl)cc1)C1CCCCC1.Cl | -25
45 | CCCN(CCC)C(=O)Nc1cc(Cl)ccc1OC | -3.32
46 | CCOC(=O)c1c(NC(=S)NC(=O)c2ccc(Cn3cc(Cl)cn3)o2)sc2c1CCCCC2 | 13.2

Row | SMILES | hERG current change (%, negative = inhibition) at 10uM [%]
47 | Oc1ccc(/C=N/NC(=S)NCC2CCCO2)cc1 (centres unmarked) | 2.06
48 | Cc1ccc(Cl)cc1NC(=O)CN1C(=O)COc2ccc(S(=O)(=O)N3CCOCC3)cc21 | 19.2
49 | CCc1ccc(S(=O)(=O)Nc2c(C)nn(C)c2C)cc1 | 4.47
50 | COc1cccc(CNC(=O)CCC2CCCN(c3cc(C)nc(N(C)C)n3)C2)c1 (centres unmarked) | -62.4
51 | CC(C)(C)[C@H]1C=C(C(=O)O)O[C@@H](OCc2ccc(CO)cc2)C1 | 20
52 | NC(=O)C1CC(=O)N(c2ccc(OCc3c(F)cccc3Cl)cc2)C1 (centres unmarked) | 9.14
53 | COC(=O)CSc1nnc2n(-c3ccc(OC)cc3)c(=O)c3c4c(sc3n12)CCCCC4 | -10.6
54 | Oc1ccc(Br)cc1CNn1cnnc1 | 13.9
55 | COc1ccc(C2CC(c3ccccc3)=NN2C(=O)CSc2ncn[nH]2)cc1 (centres unmarked) | -1.26
56 | CC1=CC(C)(C)NC(=S)N1c1ccc2ccccc2c1 | -9.82
57 | Cc1ccc(S(=O)(=O)N2CCN(c3cnn(-c4ccccc4)c(=O)c3Cl)CC2)cc1 | 4.47
58 | CCOc1ccc2nc(SCC(=O)N3CCCc4ccccc43)sc2c1 | -18.7
59 | COc1ccc2nc(NC(=O)C3COc4ccccc4O3)sc2c1 (centres unmarked) | 0.282
60 | CCC(C)N(C(=O)COC(=O)Cc1n[nH]c(=O)c2ccccc12)C1CCS(=O)(=O)C1 (centres unmarked) | 12.3
61 | CCCOC(=O)Nc1sc2c(c1C(=O)OCC)CCC2 | -7.86
62 | N#Cc1c(NC(=O)CCCN2C(=O)c3ccccc3C2=O)oc(-c2ccccc2)c1-c1ccccc1 | -4.58
63 | CC(C)(C)c1ccc(C(=O)NNc2ccc(F)cc2F)cc1 | 9.96
64 | Cc1ccc2nc(-c3ccccc3)cc(C(=O)N3CCc4ccccc4C3)c2c1 | -3.74
65 | CCc1ccccc1NC(=O)CCS(=O)(=O)c1ccc(Br)cc1 | 13.8
66 | O=C(CCCn1c(=O)c2cccn2c2cccnc21)NCCc1ccc(Cl)cc1 | -40.6
67 | C#CCNc1c2c(nc3nnnn13)CCCC2 | 11.2
68 | Cc1cc(S(=O)(=O)c2cc3ccc(O)c(C)c3oc2=O)ccc1F | 22.6
69 | Cc1ccc(C)c(C(=O)CCC(=O)Nc2cccnc2)c1 | 7.26

Row | SMILES | hERG current change (%, negative = inhibition) at 10uM [%]
70 | CCCNC(=O)C(Cc1ccccc1C)NC(=O)c1ccc(C(F)(F)F)cc1 (centres unmarked) | 14.7
71 | O=C(O)c1ccccc1N(c1ccccc1)c1ccccc1 | 17
72 | CCOC(=O)C1(C)NC(c2ccco2)C2C(=O)N(CC)C(=O)C21 (centres unmarked) | 8.65
73 | O=C(COC(=O)C1CCN(C(=O)c2ccc(Cl)cc2)CC1)Nc1ccccc1F | -56.9
74 | O=C(NCCNc1ccc([N+](=O)[O-])cc1)c1cc(F)c(F)cc1Cl | -45.1
75 | CC1(C)C(C=C(Cl)Cl)C1C(=O)N1CCN(Cc2ccccc2)CC1 (centres unmarked) | -27.9
76 | COCCN(Cc1nc(-c2ccc(C(F)(F)F)cc2)no1)C(C)C | 2.03
77 | C/C(=C1\SC(N2CCOCC2)=NC1=O)c1ccc(C)cc1 | -10.8
78 | O=C(Nc1nccs1)c1nc[nH]c1C(=O)NCc1ccccc1 | 3.34
79 | COc1cc(C(=O)Oc2ccc(C(=S)N3CCOCC3)cc2)cc(OC)c1OC | 12.2
80 | COCCNC(=O)c1ccc(NC(C)=O)cc1 | 6.98
81 | COC(=O)c1ccc2c(c1)N(C)C(=O)CS2 | -7.15
82 | CCc1ccccc1NC(=O)CNC(=O)c1cn(Cc2ccccc2)nc1-c1cccnc1 | -9.32
83 | O=C(CN(C(=O)Cn1nnc(-c2ccc(F)cc2)n1)c1cccc(F)c1)NC1CCCC1 | 7.98
84 | CN(CCOC(=O)C1c2ccccc2Oc2ccccc21)C(C)(C)C.Cl | -35
85 | O=C(NC1CCS(=O)(=O)C1)c1ccccc1C(=O)c1ccccc1 (centres unmarked) | 9.94
86 | CCOC(=O)COc1nc(-c2ccc(Cl)cc2)cc(-c2ccco2)c1C#N | -3.2
87 | O=c1oc2ccccc2n1CSC1=NCCS1 | -6.31
88 | Oc1c(C(c2ccccc2)N2CCCCC2)sc2ncnn12 (centres unmarked) | -8.46
89 | CC1(C)Oc2ccc3ccc(=O)oc3c2/C(=C/Nc2ccccn2)C1=O | 13.4

Reference: article PMC4336329 (PLoS ONE, 2015)
